The full ranking holds about 2,300 sequences; the median of “median log2 fold change of GCK-ALFA target abundance (FLAG IP / Myc IP barcode read proportion)” is about 0.095, and the lowest 2% start at about -0.47. This is one part of the list.

B1: LC3A_141_373 (protein)
chain: ETVTITKEAKNIDEDEAAKLAKEVAEEVEKEVKKFKGKTVTVKVTVTVEDVETGEKTTLTITDDVTEETAEMVMSGFEIDILSLVLDKKVNLKIEVTLTT
B2: LC3A_132_266 (protein)
chain: SEELFEKALEELKEILDKIVEALKAGEDPSPLINELYEKAKEYAKKLSLEETEKLVEETIEYAEKLFKERLDPNDEEAIRTLDIIEMLLEGVLIEKELES
B3: LC3A_28_1056 (protein)
chain: SAVDAAIAAALAEARALAAQGQEALITITVKADDTEEDVEKKLEAVREIAEITADLPAVSIVVDVDNKNKEEVTKKFAELGDELEEKYPNVTVIIALSEE
B4: LC3A_3_1845 (protein)
chain: SEEIIEEALAYLEELGRSEEVIEKTRELLDALKERGYEEAMKTLLEELKELENVSDDILLAMLEDILRAVTEENLSEEETIELIKEEARTALNESEIEEL
B5: LC3A_3_1457 (protein)
chain: LEEEKKKLRKILEENGANEETIKAGEELLEALGKKGYENAIKTVIEEVEKMKDVKSEILLDMFKELLEIVKTEDLSEEEIIKKIKEEAAAAKAENEIIEL
B6: LC3A_28_657 (protein)
chain: MSIDEILEKALEEAKQAKAAGEPTVITITVPGTANEEDIEKVIETMEEIAELLKDIPGSAIIIDLTGNLDEEKKNKLIDKAEELEEKYPNVTVIIALEEE
B7: LC3A_3_1408 (protein)
chain: FEEIREEALELLRKYGASEEVLEKLEKVLDALEEKGYEEAAKTLLEELKKMKNLSDEILLDLFEDVLDFVENEDASEEEVVKFIKEEASIALSENEIEEL
B8: LC3A_40_1917 (protein)
chain: MYEVSIDILADDPAATAAALDAARDRAAAEIKSPEGEKILAALDTMRAQAAAGEPAEATITGVSEEEANTLLRILEEMEAALHAAGVRVAALISIDKEEE
B9: LC3A_3_1648 (protein)
chain: MEKELEETEKLLKEAGHDQETIDAFRETGELLIEKGYEEAFKELIEKVKELKDLPSDILLAMLEDVLRIVKEEDLSEEEIIEEIKRIAETAKNEGEIIEL
B10: LC3A_free_39_2274 (protein)
chain: SAAELAAAKARLRALAAEASPEAAAAIDEVLELLADLPEALAAVADALEELKAAGADILAFAREVVALAREGRAAGLSPEELTRRVRELARDAVNLIPLD
B11: LC3A_free_46_2324 (protein)
chain: YKVIIDLTALHDNKENMEKFVEELEKKFKEIAEKYNAEIEIKVEISKLEDGSYFADIKIEVKAETKEKAEKILTEIIDSADEIAKKYNASVLISYEIIEE
B12: LC3A_3_1744 (protein)
chain: MEERLERIREELEELGFSEEVIEAALRVARALLERGFEEAVETLLRELRELKDVPDEILLAMLEDILRAVEENDIDEEEAIELIKEEARIARNEAEIEEL
B13: LC3A_free_39_2196 (protein)
chain: SEEERQEAIDELLKLAEEEGEEAKKLAREILELMGYELEHAKELLELAKKAKEEGVDLKEVLKEALALGKELKAQGKSKEEIAKAVLELIQDRINLIPID
B14: LC3A_free_26_2145 (protein)
chain: SDFVDLYNIDKAEEAVEEAMKLLKEEGYKDEELLKLLEEAKKYIRELTLESLKKALKLVEEAMKRVKEDKSLPEKVKKELLKLLEEAKKHLEETIEIMES
B15: LC3A_free_39_2204 (protein)
chain: SAEEFQEYADRLLALAKEEGEEALKEAEELLKLIEGNTELAKTVLELAEKAKAEGADLKEFLKEAVKLVKELIAAGASDEEIIKALKELARDFINLIPID
B16: LC3A_13_351 (protein)
chain: TLTYTATTAEEVKAITKEVLAAGKDVNLTVDLTGKSQEEIDAIAKALAAFVKEAIKAGINLTITIIGDRLDTNYVALEIGAEIAENQGGGQVTVNTELTP
B17: LC3A_3_1491 (protein)
chain: MEELLERMREVLEARGASEEQIEEVLEAVEELLELGYEETVEELIELFEANPDLDPEQIVTAVLITLEVAEEEDLSEEELVERARRIFEDVAEIEALDEE
B18: LC3A_free_39_2209 (protein)
chain: SEEELEELIKEVAKEGGIDYEYVKEKIEEIQKVAELSIEQMKEIVKAILKAVKAGADAKEILEEILKIAKELKEKGKSPEEIKEAILKTVEDFENLVPLD
B19: LC3A_free_39_2191 (protein)
chain: SAAERKRLREEILALAAKYGEEARKLAEELIELIGDEVERLRRLLELLKEADEAGVDLKELLEEALALARELQAQGKSREEIAEEVFALIRDRINLIPID
B20: LC3A_28_688 (protein)
chain: MDPLEELLEQVEKATEQLLADPGATVTIEINRPLTEEETEKLVEALKEMAERVKDVDGGTIIISVSEKVSEETINKLAEAGEEIEEKYPNITVIIALEER
B21: LC3A_28_788 (protein)
chain: SKLKENADKALAEAKAAAAAGESTVITIEVSGEATEEDIEYVIEKLKEIAEVLKDVENQAIIIDVSKDVKEEHLNKLMDAADEVEEKYPNVTVIIALEER
B22: LC3A_3_1468 (protein)
chain: MDPAVAALAAALRARGVPEEQIARIVAAAERLAEHGVLDVIVETLEAALAHPSATPEQLVEIAEETLRLAVEEGLSREEVREEAKVLLLERVEIEEIDEE
B23: LC3A_3_1459 (protein)
chain: SPALIARARAILEANGFSPETIAAAVRLLEALAARGYEEAQKTLLAEIEKLKDVSSEIMLAMFEELLALVETEDLTEEEVVAAIKEEAAAARSEQEIIEL
B24: LC3A_free_46_2385 (protein)
chain: YKAIIDVDFGAMDRETAEEIAEKIKKAAEEISKKYGVKVEVEVEIIEDPDGEYYLRVRITIEGEDKEKVEAAVNELIDKIDEIAEEAGVSYIISVEFIDE
B25: LC3A_free_0_2109 (protein)
chain: MIVEGEVVAISKEPVSDEDAEKLLKAAKEKAKEIEKKYGAKTEVTAERIDGRLVLTIKITAEGLSIEEMDEILNEVADFIEKKAKELGKEVTIYLSIEEL
B26: LC3A_74_2076 (protein)
chain: KLTPEEVEEVDEAIAFAELLRILAKEHPEKKEELLKAAKEALEAAEEVIKKSGLDLDLLLEGGRIEAELLYLKKEYTVEEALKKLKEELKKVKEILKKLE
B27: LC3A_3_1531 (protein)
chain: LEERVEKRLEELKAAGASEETLEAFKETAELLKEKGYEEALETLIEEADELKDVPNELFLDFFKEVLELVKTSDLSEEELVEEIKEIARTVKNESEIIEL
B28: LC3A_3_1539 (protein)
chain: LEEEIEAALALLREAGASEETLAAFREAAEALLERGYEEALRELIRETRELIDAPSELLLAFFEEVLALVRTSDLSEEELIAEIRRIARTTRNEAEIEEL
B29: LC3A_28_811 (protein)
chain: SHVDEVIAAVKEEGEKLKNSKEDVLLEVRVSGDITVEEAERLMDAIEEIARELAKNRKVYIVITAEEPISQEVLDTILDRAEEIEEKYPNVSVIVALPEE

This experiment has as its target MAP1LC3A, Q9H492. The experiment in a line: median log2 fold change of GCK-ALFA target abundance (FLAG IP / Myc IP barcode read proportion) (log2 ratio); each designed protein is fused to an ALFA-tag nanobody in HEK293 cells to bring the named protein to FLAG-tagged glucokinase (GCK); Myc marks an untargeted standard; higher = target protein stabilised (more abundant). Conditions: target protein: 3xFLAG-MCP-GCK-ALFA reporter; HEK293 landing pad (RPLP). Summed up:
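Binders fused to an ALFA nanobody were recombined as a library into HEK293 landing-pad cells, which were induced with 2 μg mL^−1 doxycycline and then transfected to express a FLAG-tagged target and a Myc-tagged standard. After 48 h, circular RNA barcodes recovered by anti-FLAG and anti-Myc immunoprecipitation of lysates were reverse transcribed, amplified and sequenced. Each binder's target abundance is the median log2 ratio of FLAG to Myc barcode read proportions, from barcodes present at ≥10^−7 in both replicates, binders carrying ≥3 barcodes per replicate, a 10^−6 pseudocount and pooled replicates.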
For B1, the “median log2 fold change” value is 0.304.

As to B2, the “median log2 fold change” value came out at 0.165.

Consider B3, for which the “median log2 fold change” value is -0.0101.

For the molecule B4, the “median log2 fold change” value came out at 0.182.

Consider B5, for which the “median log2 fold change” value is 0.563.

With B6, the “median log2 fold change” value is -0.19.

As for B7, the “median log2 fold change” value turned out to be 0.0172.

On to B8, for which the “median log2 fold change” value was determined as 0.0814.

Turning to B9, the “median log2 fold change” value was 0.37.

For B10, the “median log2 fold change” value came out at 0.209.

With B11, the “median log2 fold change” value is -0.0986.

In the case of B12, the “median log2 fold change” value was -0.316.

With B13, the “median log2 fold change” value came to 0.256.

For B14, the “median log2 fold change” value was 0.0771.

For B15, the “median log2 fold change” value was 0.298.

With B16, the “median log2 fold change” value turned out to be 0.184.

Consider B17, for which the “median log2 fold change” value is -0.577.

For B18, the “median log2 fold change” value came to 0.0555.

With B19, the “median log2 fold change” value was determined as 0.0381.

As to B20, the “median log2 fold change” value came to 0.248.

For B21, the “median log2 fold change” value was -0.0358.

For B22, the “median log2 fold change” value turned out to be 0.182.

On to B23, for which the “median log2 fold change” value came out at 0.111.

On to B24, for which the “median log2 fold change” value amounted to 0.0817.

Regarding B25, the “median log2 fold change” value was -0.0406.

On to B26, for which the “median log2 fold change” value came to 0.186.

For the molecule B27, the “median log2 fold change” value was 0.197.

Turning to B28, the “median log2 fold change” value came to 0.318.

For the molecule B29, the “median log2 fold change” value is -0.124.

The values above are taken from the supplement of paper PMC12632987.
